# Assay results taken from PubChem BioAssay AID504706 (National Center for Advancing Translational Sciences (NCATS), 2011).
# In all, about 320,000 compounds went through this assay and about 200 (0.062%) were called active. Inconclusive means that the source gave no clear call. Such entries were picked first, then a sample of the others. Calls follow the shape of the dose curve; as a rule, active = well fitted activation curve with a large enough effect; inconclusive = small, poorly fitted or top-dose-only effect; inactive = no such curve, though single readings can be large or run the other way. Potencies of inconclusive entries are left out as doubtful fits.
# Assay: qHTS assay for re-activators of p53 using a Luc reporter; also: nearly all actives have a fitted effect of over 45% in size
# Details: H1299 p53-A138V BP100-luciferase reporter, luminescence, 24 h; series mostly up to 92.2 µM
# In short: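 H1299 (p53-null), stable ts p53-A138V + BP100-Luc; 1000 cells/well, Opti-MEM/10% FBS; cpd 4 pt, 1:5; 24 h, 37 deg C, 5% CO2; detection reagent 10 min RT; luminescence.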
# Potency is read from the fitted curve at half-maximal effect; tags tell the direction and shape of the fitted curve.
row,SMILES,Potency
1,Cc1ccc2c(Cl)c(C(=O)N/N=C/c3cccn3C)sc2c1,"inconclusive [activator, full curve, poor fit]"
2,Cc1cccc(C(=O)OC(C)C(=O)N2CCc3ccccc3C2)c1C (stereo not given),inactive
3,COc1ccc(CCNC(=O)Cn2c(=O)n(-c3cc(F)ccc3F)c(=O)c3sccc32)cc1OC,inactive
4,O=C(NN=C1CCCC1)c1cccc(O)c1,"inconclusive [activator, partial curve, poor fit]"
5,COCn1c(COc2ccccc2)nc2ccccc21,"inconclusive [activator, partial curve, poor fit]"
6,CCCCCCc1cc2cc(C(=O)Nc3ccccc3)c(=O)oc2cc1O,inactive
7,CC1CCc2sc(C(=O)NCC3CCCO3)cc2C1 (stereo not given),"inconclusive [activator, full curve, poor fit]"
8,O=C(NNC(=S)Nc1ccc(Cl)c(Cl)c1)c1ccccn1,"inconclusive [activator, single point]"
9,CCNC(=O)c1cc2c(=O)n3cccc(C)c3nc2n(Cc2ccc(C)cc2)c1=N,inactive
10,Cc1ccc(NC(=O)/C=C2\NC(=O)CS2)cc1,"inconclusive [activator, partial curve, poor fit]"
11,COc1ccc2c(c1)CC/C2=N\NC(=O)c1ccccc1,"inconclusive [activator, full curve, poor fit]"
12,Cc1ccc(-c2csc(NC(=O)c3ccc([N+](=O)[O-])o3)n2)cc1,"inconclusive [activator, full curve, poor fit]"
13,C/C(=N\NC(=O)Nc1ccccc1)c1ccccc1,"inconclusive [activator, single point]"
14,C(=N\NC1=Nc2cccc3cccc1c23)/c1ccccc1,active: 50.1 µM
15,O=C1NC(=Nc2ccccc2)S/C1=C\C=C\c1ccco1,"inconclusive [activator, partial curve, poor fit]"
16,CCOCc1[nH]c(=S)[nH]c(=O)c1Cc1ccc(OCC(C)C)cc1,inactive
17,Cc1cc(O)ccc1N/C=C/c1onc(C)c1[N+](=O)[O-],"inconclusive [activator, partial curve, poor fit]"
18,Nc1ccc(Oc2ccc3c(c2)C(=O)NC3=O)cc1,"inconclusive [activator, single point]"
19,Cc1cc(S(=O)(=O)N2CCCC2)ccc1OCC(=O)N1CCCCC1,inactive
20,COc1cc(/C=N/OCC(=O)NC2CCCCC2)ccc1OCc1ccccc1,"inconclusive [activator, partial curve, poor fit]"
21,Cc1ccc(-c2cc(C(=O)NC3CCCC3)no2)cc1,inactive
22,CC(=O)CCC1CC(c2ccc(Cl)cc2)=NO1 (stereo not given),"inconclusive [activator, partial curve]"
23,Cc1cccc(Nc2nnc(SCC3CCCCO3)s2)c1C (stereo not given),"inconclusive [activator, partial curve, poor fit]"
24,O=S(=O)(NCc1ccncc1)c1ccc(Br)s1,inactive

row,SMILES,Potency
1,CCn1c(NC(=O)C(C)C)c(-c2cccs2)c(=O)c2ccccc21,inactive
2,C/C(=N\Nc1nccnc1Cl)c1ccc(F)cc1,"inconclusive [activator, single point]"
3,Cc1ccc(C)c(OCc2cc(C(=O)N3CCNC(=O)C3)no2)c1,inactive
4,Oc1cc(-c2ccncc2)cc2cccnc12,"inconclusive [activator, single point]"
5,Cc1ccc(/C=C/C(=O)Nc2ccc(Oc3ccccc3)cc2)o1,"inconclusive [activator, partial curve, poor fit]"
6,Cc1ccc(S[C@@H](CCN2CC[C@H](NC(=O)OCc3ccccc3)CCC2=O)c2ccccc2)cc1,inactive
7,Cc1[nH]cnc1C(=O)N/N=C/c1ccc([N+](=O)[O-])s1,"inconclusive [activator, partial curve, poor fit]"
8,NC(=O)[C@@H]1CC2(CC(c3cccc(NC(=O)COc4ccc(Cl)cc4)c3)=NO2)CN1C(=O)COc1ccc(Cl)cc1 (stereo not given in full),inactive
9,Cc1cc(=O)[nH]c(SCC(=O)Nc2cccc(S(=O)(=O)N3CCOCC3)c2)n1,"inconclusive [activator, single point]"
10,O=C(c1nc2ccccc2s1)N1CCSCC1,"inconclusive [activator, partial curve, poor fit]"
11,N/C(=N\OC(=O)CSc1ccccc1)c1ccc([N+](=O)[O-])cc1,"inconclusive [activator, full curve, poor fit]"
12,COc1cc(C(=O)Nc2nnc(CC(=O)N3CCOCC3)s2)cc(OC)c1OC,"inconclusive [activator, single point]"
13,Cc1cccc(NC(=O)C2CCCC2)c1,inactive
14,Cc1ccc(C(=O)N2CCN(c3cccc(Cl)c3)CC2)cc1C,inactive
15,c1ccc(-c2cc3c(ccc4nonc43)nn2)cc1,"inconclusive [activator, single point]"
16,CC(C)n1cnc2cc(NCc3ccccn3)ccc21,"inconclusive [activator, partial curve, poor fit]"
17,CCN(CC)c1ccc(/C=N/NC(=S)NCc2ccc(OC)cc2)cc1,inactive
18,CCC1(c2ccc(Cl)cc2)NC(=S)N(c2ccc(C)cc2)N1 (stereo not given),"inconclusive [activator, partial curve, poor fit]"
19,COc1ccc(OC)c(-c2cc(C(=O)N3CCN(c4ncccn4)CC3)c3ccccc3n2)c1,inactive
20,Cc1ccc(NC(=O)c2cccc(S(C)(=O)=O)c2)cc1,"inconclusive [activator, single point]"
21,O=C(Nc1ccc2c(c1)OCO2)Nc1ccccc1F,"inconclusive [activator, partial curve, poor fit]"
22,Oc1cc2ccccc2cc1-c1nnc2n1-c1ccccc1SC2,inactive
23,CC[n+]1c(C)cc2c(sc3ccccc32)c1C,inactive
24,COc1ccccc1Nc1nc2ccccc2n1C,"inconclusive [activator, partial curve, poor fit]"

row,SMILES,Potency
1,Cc1ccc(NC(=O)N2CCCC(C(=O)O)C2)cc1 (stereo not given),inactive
2,CC(C)(C)c1ccc(C(=O)c2cn[nH]c2-c2ccccc2O)cc1,"inconclusive [activator, full curve, poor fit]"
3,Nc1nn(-c2ccccc2)nc1C(=O)OCc1ccccc1F,"inconclusive [activator, partial curve, poor fit]"
4,CC(C)S(=O)(=O)c1csc(NC(=O)Nc2ccc(Cl)cc2)c1Cl,"inconclusive [activator, full curve, poor fit]"
5,O=C1c2ccccc2C(=O)C12OC2c1ccc(Cl)cc1 (stereo not given),"inconclusive [activator, single point]"
6,Cc1ccc(-c2nnn(Cc3nc4ccccc4s3)n2)cc1,"inconclusive [activator, partial curve, poor fit]"
7,Cc1nn(C2CCS(=O)(=O)C2)c(C)c1CN(C)C(=O)c1ccccc1 (stereo not given),"inconclusive [activator, single point]"
8,Cc1nc2nc(SCC(=O)c3cccc([N+](=O)[O-])c3)[nH]c2cc1Br,"inconclusive [activator, partial curve, poor fit]"
9,CCOc1ccc(NC(=O)C(C)Oc2ccccc2C(=O)Nc2ccc(C)c(Cl)c2)cc1 (stereo not given),"inconclusive [activator, partial curve, poor fit]"
10,CCc1ccc(C(=O)COC(=O)c2ccccc2OC)cc1,"inconclusive [activator, partial curve, poor fit]"
11,NC(=O)Cc1ccc2sc(-c3ccccc3)nc2c1,"inconclusive [activator, partial curve, poor fit]"
12,Cc1ccc(NC(=O)C(Nc2cccc(C)c2)c2ccccc2)cc1 (stereo not given),"inconclusive [activator, full curve, poor fit]"
13,Cc1nc(C)c(-c2ccc(SCc3ccccc3F)nn2)s1,"inconclusive [activator, partial curve, poor fit]"
14,O=C(Nc1cccc(O)c1)c1cnn2cccnc12,"inconclusive [activator, partial curve, poor fit]"
15,CCOc1ccc(-c2cc(C(=O)NN)[nH]n2)cc1,"inconclusive [activator, full curve, poor fit]"
16,O=C(N=C1N=C2C=CC=CN2Cc2ccccc21)c1ccc(S(=O)(=O)N2CCOCC2)cc1,"inconclusive [activator, single point]"
17,Fc1ccc(-c2cc(C(F)(F)C(F)F)[nH]n2)cc1,inactive
18,COc1ccccc1OCc1nc(-c2ccc([N+](=O)[O-])cc2)no1,"inconclusive [activator, partial curve, poor fit]"
19,CNc1nc2c(N)ncnc2n1[C@H]1O[C@@H](CO)[C@H](O)[C@@H]1O,"inconclusive [activator, single point]"
20,COC(=O)c1ccc(NC(=S)NNC(=O)c2ccccc2)cc1,inactive
21,CNC(=S)N/N=C(\C)c1ccc(C(C)(C)C)cc1,"inconclusive [activator, partial curve, poor fit]"
22,COc1cc2c(ccc3cc(OC)c(OC)c(O)c32)cc1O,inactive
